Data published in PubChem BioAssay AID652104 (National Center for Advancing Translational Sciences (NCATS), 2013).
Among all 410,000 compounds or so, about 7,200 (1.8%) were called active. Inconclusive results, whose numbers are uncertain, are shown with a selection of clear calls. Calls come from the whole dose curve; as a rule, active = well fitted activation curve with a large enough effect; inconclusive = small, poorly fitted or top-dose-only effect, or another doubt; inactive = no such curve, though single readings can be large or run the other way. Potencies of inconclusive entries are left out as doubtful fits.

experiment: qHTS of TDP-43 Inhibitors; conditions: TDP-43 expressing yeast growth rescue, BacTiter-Glo, 24 h; growth rescue (activation): at 46.1 µM (top of the series) unless noted; note: nearly all actives have a fitted effect of over 50% in size; for growth rescue (activation): % of control where 0% means no effect
How it was run: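 Luminescence from BacTiter-Glo reports growth of TDP-43-expressing yeast after 24 hr at 30 deg C with compound. Cells were raffinose-pregrown to mid-log, then seeded in galactose medium at OD600=0.02.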
Potency is the fitted concentration of half-maximal effect; tags give direction and shape of the fitted curve.

Structure (SMILES)	growth rescue (activation)	Potency
O=C(CCCOc1ccccc1)NCCc1ccccc1	inactive: 6.69% [at 9.22 µM]	
Cc1c(C(=O)Nc2ccccn2)oc2c(Cl)cccc12		inconclusive [activator, partial curve]
CCOC(=O)C1CCN(S(=O)(=O)c2ccc(OC)c(OC)c2)CC1	inactive: -6.33%	
CC(=O)c1ccc(NS(=O)(=O)c2ccc(Br)s2)cc1		inconclusive [activator, full curve]
Cc1ccc(CNC(=O)C2CCN(S(=O)(=O)c3ccc4nc5c(c(C(=O)O)c4c3)CC(C)CC5)CC2)cc1 (stereo not drawn)		inconclusive [activator, partial curve]
O=C(Nc1ccc(F)cc1F)c1csc(-c2cccs2)n1		inconclusive [activator, partial curve]
CC12CCC(C(=O)N3CCc4ccccc43)(CC1=O)C2(C)C (stereo not drawn)		inconclusive [activator, single point]
Cc1cc(C(=O)N2CCN(c3cccc(Cl)c3)CC2)c2c(C)nn(-c3ccccc3Cl)c2n1		active: 20 µM
CCOCCCNC(=O)c1cn(CC)c2ccc(S(=O)(=O)N3CCOCC3)cc2c1=O		inconclusive [activator, full curve, poor fit]
CCOC(=O)c1ccc(N2CCN(c3ccccc3OC)CC2)c(NC(=O)Nc2ccc(CC)cc2)c1	inactive: -24.8%	
CC(C)CCNc1nc(N)c([N+](=O)[O-])c(N2CCCCCC2)n1		inconclusive [activator, partial curve]
CN(C)c1ncnc2c1ncn2[C@H]1CN(Cc2cccs2)C[C@@H](CO)O1	inactive: 21%	
COCCNC(=O)c1ccc(CSc2nc3ccccc3s2)cc1		inconclusive [activator, single point]
COc1ccccc1C(=O)COC(=O)c1nc(Cl)ccc1Cl		inconclusive [activator, partial curve, poor fit]
COc1ccc(CNC(=O)c2ccc(-c3cnn(C)c3)c3ccoc23)cc1OC	inactive: 21.8%	
CSc1ccccc1NC(=O)CN(C)CC(=O)Nc1c(F)cccc1F	inactive: 20%	
COc1ccc(C=C2CS(=O)(=O)CC(=Cc3ccc(OC)cc3)C2=O)cc1	inconclusive: -88.2% [activator]	
Clc1ccccc1Cc1noc(CN2CCN(c3cnccn3)CC2)n1		inconclusive [activator, single point]
COc1cc(OC)cc(C(=O)NCCSCc2ccc(Cl)cc2)c1		inconclusive [activator, single point]
O=C(Nc1nccs1)c1ccc(CSc2ccccc2)o1		active: 11.2 µM
O=C(CCc1cccc(Cl)c1)N1CCCC(Nc2ccccc2)C1 (stereo not drawn)		inconclusive [activator, partial curve]
CN1C(=O)Cc2cc(S(=O)(=O)NCc3ccc(Cl)cc3)ccc21		inconclusive [activator, partial curve, poor fit]

Structure (SMILES)	growth rescue (activation)	Potency
Cc1ccc(C)c2c1[nH]c1ccc([N+](=O)[O-])cc12		inconclusive [activator, full curve]
CC(C)CNC(=S)NC(=O)c1ccccc1Cl		inconclusive [activator, partial curve]
COc1ccc(CCNC(=S)Nc2cccc(C)c2)cc1		inconclusive [activator, single point]
O=C(NC(=S)Nc1ccccc1Cl)C1CC1		active: 10 µM
COc1cc2ccccc2cc1C(=O)N1CCCC(C(F)(F)F)C1 (stereo not drawn)		inconclusive [activator, single point]
COC(=O)c1c(NC(=O)CS(=O)(=O)c2ccccc2)sc(C)c1C		inconclusive [activator, single point]
CC12CCC(C(=O)Nc3ccccc3Br)(C/C1=N\O)C2(C)C (stereo not drawn)		inconclusive [activator, partial curve]
COc1ccc(S(=O)(=O)c2c(Nc3ccc(C)cc3C)sc(C(=O)c3ccc(F)cc3)c2N)cc1		inconclusive [activator, full curve]
Cc1cc(C)c(NC(=O)C2CCN(S(=O)(=O)c3c(C)noc3/C=C/c3ccccc3F)CC2)c(C)c1		inconclusive [activator, partial curve]
O=C1Cc2cc([N+](=O)[O-])ccc2N1c1c(Cl)cccc1Cl		active: 20 µM
Cc1cc(C)c(NC(=O)Cn2c(=O)n(CC3CCCO3)c(=O)c3ccccc32)c(C)c1 (stereo not drawn)		inconclusive [activator, partial curve, poor fit]
CO/N=C(\c1nonc1N)N1CCN(c2ccc(Cl)cc2[N+](=O)[O-])CC1		active: 14.1 µM
CC(=O)Nc1c(C)nn(-c2ccccc2)c1N1CCC(C(=O)Nc2cc(F)ccc2F)CC1		inconclusive [activator, partial curve, poor fit]
Cc1cccc(C)c1NC(=O)COC(=O)C1Cc2ccccc2CN1C(=O)c1ccccc1 (stereo not drawn)		inconclusive [activator, partial curve]
NC(=O)c1ccsc1NC(=O)c1ccco1		inconclusive [activator, partial curve]
CC(C)(C)c1ccc(-c2n[nH]c(=S)n2C2CCCC2)cc1		inconclusive [activator, single point]
CCc1ccccc1S(=O)(=O)Cc1ccc(C(=O)NCCc2ccc(C)cc2)o1		inconclusive [activator, single point]
CCc1ccccc1NC(=O)CSc1ncc2c(n1)-c1cc(Cl)ccc1N(Cc1ccccc1)S2(=O)=O		inconclusive [activator, single point]
CCOc1ncccc1C(=O)N1CCN(c2cccc(C)c2C)CC1		inconclusive [activator, partial curve]
O=C(Nc1ccccn1)c1ccc(Cl)s1		inconclusive [activator, partial curve]
COc1ccc(CCNC(=O)C2(c3ccccc3)CC2)cc1		inconclusive [activator, partial curve]
